Experimental data: PubChem BioAssay AID485313 (National Center for Advancing Translational Sciences (NCATS), 2010)
“And” between values parts separate entries of the source, which are not always exact repeats. Equal values may be shown once. Hit rate of the full screen: of about 320,000 compounds, about 7,600 (2.4%) were called active. This list was built around the results that the source calls inconclusive (neither active nor inactive); the mix of calls is not that of the screen. Calls come from the whole dose curve; as a rule, active = well fitted activation curve with a large enough effect; inconclusive = small, poorly fitted or top-dose-only effect; inactive = no such curve, though single readings can be large or run the other way. Potencies beside an inconclusive call are fits to weak or partial responses and may not hold up.

Experiment: qHTS Assay for NPC1 Promoter Activators; note: nearly all actives have a fitted effect of over 60% in size;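 for activation: reporter is driven by a mutant NPC1 promoter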
Conditions: Huh7 NPC1 promoter luciferase reporter, 24 h; series mostly up to 9.22 µM
Procedure, shortened: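 Stable NPC1-promoter luciferase Huh7 line; cpd (DMSO) 24 h, 37 °C, 5% CO2; Amplite luciferase reagent 10 min RT; luminescence readout. qHTS format.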
Potency is the fitted concentration of half-maximal effect; tags give direction and shape of the fitted curve.

Row | SMILES | Potency
1 | O=C(O)c1cc(-c2ccc3ccccc3n2)nc2ccccc12 | inconclusive: 1.78 µM [activator, partial curve]
2 | Cn1nnnc1SCc1ccc(C(=O)Nc2ccccc2F)cc1 | inconclusive: 2.82 µM [activator, partial curve]
3 | O=C(O)C=C1CCN(c2ncc(C(F)(F)F)cc2Cl)CC1 | inconclusive: 2.82 µM [activator, partial curve]
4 | Cc1occc1-c1nnc(SCC(=O)Nc2ccccn2)o1 | inconclusive: 3.16 µM [activator, single point]
5 | O=C(Oc1ccc(N(Cc2cccs2)C2=NS(=O)(=O)c3ccccc32)cc1)c1ccccc1Cl | inactive
6 | CN1CCN(C(=O)c2cc(-c3ccccc3)on2)CC1 | inconclusive: 3.16 µM [activator, partial curve]
7 | CCC(=NCc1ccco1)c1c(C(F)(F)F)[nH]n(-c2nc3ccccc3s2)c1=O | inconclusive: 3.55 µM [activator, partial curve]
8 | O=C(CCS(=O)(=O)c1ccccc1)N1CCN(c2ccc(F)cc2)CC1 | inconclusive: 3.55 µM [activator, single point]
9 | CCCCCCCN1CCN=C1Nc1ccccc1 | inactive
10 | CCCc1nnc(NC(=S)Nc2ccccc2)s1 | inconclusive: 3.98 µM [activator, partial curve]
11 | CCOC(=O)c1nc2c(ccc3ccccc32)cc1C | inactive
12 | COc1ccc(NC(=O)c2cc3ccc(O)cc3o/c2=N\O)cc1 | inconclusive: 1.12 µM [activator, full curve]
13 | Cc1ccc(NC(=O)CSc2nccn2Cc2ccco2)cc1 | inconclusive: 3.55 µM [activator, partial curve]
14 | Cc1ccc(N2C(=O)c3n[nH]c(C)c3C2c2ccco2)cc1 (centres undefined) | inconclusive: 3.98 µM [activator, partial curve]
15 | Cn1ccnc1SCC(=O)c1ccc(Cl)cc1 | inconclusive: 2.82 µM [activator, single point]
16 | COC(=O)N/N=C/c1ccc(Oc2ccccc2)cc1 | inconclusive: 3.55 µM [activator, partial curve]
17 | COc1cccc(NC(=O)c2ccco2)c1 | inconclusive: 5.62 µM [activator, single point]
18 | COc1cccc(C(=O)COc2cccc(NC(=O)c3cccc([N+](=O)[O-])c3)c2)c1 | inactive
19 | Cc1cc(C)n(CCN(C)C(=O)CCc2nnc(CCC3CCCCC3)o2)n1 | inconclusive: 3.98 µM [activator, partial curve]
20 | CC(NC(=O)C1CC1)c1ccc(-c2ccccc2)cc1 (centres undefined) | inactive
21 | CCc1nnc(NC(=O)c2ccc3ncsc3c2)s1 | inconclusive: 3.16 µM [activator, partial curve]
22 | CCOC(=O)c1ccc(N(CC(=O)NC2CCCCC2)C(=O)CNC(=O)c2ccco2)cc1 | inactive
23 | O=C1N/C(=N/N=C/c2ccccc2O)SC1Cc1ccc(F)cc1 (centres undefined) | inactive
24 | COC(=O)C1=NN(C(=O)c2cccc(Br)c2)C(O)(c2ccc(Cl)cc2)C1 (centres undefined) | inactive
25 | COc1cc(/C=N/OCC(=O)NC2CCCCC2C)ccc1OCc1ccc(Cl)cc1 (centres undefined) | inconclusive: 3.55 µM [activator, single point]

Row | SMILES | Potency
26 | COc1ccc(CCNC(=O)C2CC(c3ccccc3[N+](=O)[O-])=NO2)cc1 (centres undefined) | inconclusive: 3.55 µM [activator, single point]
27 | Cn1c(SCC#N)nnc1-c1ccc2c(c1)OCO2 | inactive
28 | Cc1cnc(C(=O)Nc2nccs2)cn1 | inconclusive: 3.55 µM [activator, partial curve]
29 | CC(C)c1cc2cc3ccc(=O)oc3cc2o1 | inconclusive: 3.16 µM [activator, partial curve]
30 | Cc1oc(-c2ccc(-c3ccccc3)cc2)nc1CN1CCN(CC(=O)N(C)C)CC1 | inconclusive: 0.398 µM [activator, full curve, poor fit]
31 | O=[N+]([O-])c1cc(C2Nc3cccc4cccc(c34)N2)ccc1Cl | inconclusive: 1.58 µM [activator, partial curve]
32 | COc1ccc(-c2csc(NC(=O)COC(=O)C3=COCCO3)n2)cc1 | active: 3.55 µM
33 | CC(C)c1ccc(/C=C2\SC(=S)N(CCC(=O)N3CCCCC3CCO)C2=O)cc1 (centres undefined) | inactive
34 | CC(C)CCn1c(=O)c2sccc2n2c(CCCC(=O)N3CCC(N4CCCCC4)CC3)nnc12 | inactive
35 | COc1ccc(CNC(=O)[C@H](Cc2ccccc2)NC(=O)C2CCNCC2)cc1 | inactive
36 | CC(=O)c1ccc(NC(=O)c2ccn[nH]2)cc1 | active: 2 µM
37 | O=C(O)c1cc2cc(OCc3ccccc3)ccc2[nH]1 | inactive
38 | CCc1ccn2cc(-c3ccc4c(c3)OCO4)nc2c1 | inconclusive: 0.282 µM [activator, partial curve]
39 | CCOC(=O)CCn1nc(-c2ccc(Cl)cc2)cc1N | inconclusive: 2.51 µM [activator, partial curve]
40 | CC(=O)c1cccc(NC(=O)Nc2ccc(C)cc2)c1 | inconclusive: 3.16 µM [activator, partial curve]
41 | O=C(COC(=O)c1cc(Cl)ccc1O)c1ccc2c(c1)OCO2 | inconclusive: 3.98 µM [activator, single point]
42 | NC(=O)C1CCN(c2nc(-c3ccc(Br)cc3)cs2)CC1 | inconclusive: 3.55 µM [activator, single point] and inconclusive: 1.78 µM [activator, partial curve] and inconclusive: 3.55 µM [activator, partial curve]
43 | CCOc1ccc(Nc2ccc([N+](=O)[O-])c3nonc23)cc1 | inconclusive: 3.55 µM [activator, partial curve]
44 | Cc1ccc(CCC(=O)Nc2ccccc2F)s1 | inconclusive: 3.98 µM [activator, partial curve]
45 | O=C(O)c1ccc(N=NN2CCCCC2)cc1 | inconclusive: 1.26 µM [activator, partial curve]
46 | O=C(Nc1ncc(Cc2cccc(Cl)c2)s1)C1CCCO1 (centres undefined) | inconclusive: 3.55 µM [activator, partial curve]
47 | COCC(C)n1c(C)cc(C(=O)COc2ccc(S(=O)(=O)N3CCOCC3)cc2Cl)c1C (centres undefined) | inconclusive: 3.16 µM [activator, single point]
48 | O=C(O)CC1(CC(=O)NCc2ccc(Cl)cc2)CCCCC1 | inactive
49 | Cc1cc2nc(-c3ccccn3)c(-c3ccccn3)nc2cc1C | inconclusive: 3.16 µM [activator, single point]
50 | COc1ccccc1N=c1sc2ccccc2n1C | inactive

Row | SMILES | Potency
51 | COc1cccc(CNc2nc3nc(C)c(Cl)c(C)n3n2)c1 | inconclusive: 2.51 µM [activator, partial curve]
52 | CC(=O)c1cccc(NC(=S)NC(=O)c2ccc(Cl)cc2)c1 | inconclusive: 3.16 µM [activator, partial curve]
53 | COc1ccc(-c2cc(C(=O)OCC(=O)Nc3cc(C)on3)c3ccccc3n2)cc1OC | inactive
54 | CCOc1ccc(C(=O)NCCCCNC(=O)c2ccc(OCC)cc2)cc1 | active: 3.55 µM
55 | N#C/C(=C\c1cccs1)C(=O)Nc1nccs1 | active: 3.55 µM
56 | COc1ccc(-c2csc(NC(=O)COC(=O)Cc3ccc(Cl)cc3Cl)n2)cc1 | inconclusive: 3.98 µM [activator, partial curve]
57 | CCN(CC)CCn1c2ccccc2c2nc3ccccc3nc21 | inconclusive: 3.98 µM [activator, single point]
58 | CCCSC1C(C)=C(C)C(=O)N1Cc1ccccc1 (centres undefined) | inactive
59 | CC1(C)CC(=O)c2cnc(N3CCc4ccccc43)nc2C1 | active: 2.82 µM
60 | O=C(/C=C\c1ccccc1OC(=O)c1ccccc1F)c1cc2ccccc2o1 | inconclusive: 3.55 µM [activator, single point]
61 | C/C(=N\NC(=O)c1ccccc1O)C1C(=O)c2ccccc2C1=O | inconclusive: 1.58 µM [activator, partial curve]
62 | O=C(N/N=C/C(Br)=C/c1ccccc1)c1n[nH]c2c1CCC2 | inconclusive: 5.62 µM [activator, single point]
63 | O=C(CSc1nnc(-c2ccncc2)o1)Nc1cc(F)ccc1F | active: 2.82 µM
64 | CNC(=S)N/N=C/c1ccc(-c2ccc(C(=O)O)cc2)o1 | inconclusive: 2.51 µM [activator, partial curve]
65 | O=C(CNC(=O)c1ccc(Cl)cc1Cl)OCc1nc2ccccc2s1 | inactive
66 | CCN(CC)C(=O)c1sc(NC(=O)c2ccc3c(c2)OCO3)c(C(N)=O)c1C | inconclusive: 3.98 µM [activator, partial curve]
67 | O=C(Nc1ccc2c(c1)oc1ccccc12)c1cccnc1 | inconclusive: 3.16 µM [activator, partial curve]
68 | CNC(=O)c1ccsc1NC(=O)c1sc2ccccc2c1Cl | inconclusive: 3.16 µM [activator, single point]
69 | Cc1c(NC(=O)c2cccs2)cccc1C(=O)O | inconclusive: 3.16 µM [activator, partial curve]
70 | N#CCN(CC#N)C(=O)C1c2ccccc2Oc2ccccc21 | inactive
71 | O=C(Nc1ccc2oc(-c3ccccc3)nc2c1)C1CCCO1 (centres undefined) | active: 2.24 µM
72 | CCOc1ccc(S(=O)(=O)N2CCC(C(=O)NC3CC3)CC2)cc1Cl | inconclusive: 5.62 µM [activator, single point]
73 | COc1cccc(C(=O)NN=C2CCCC2)c1 | inactive
74 | CC(NS(=O)(=O)c1ccc(OCC(=O)NCc2ccccn2)cc1)c1ccccc1 (centres undefined) | inactive
